Assay results: PubChem BioAssay AID1508624 (National Center for Advancing Translational Sciences (NCATS), 2021)
In all, about 48,000 compounds went through this assay and about 120 (0.25%) were called active. Inconclusive results (about 4%) are left out. Calls come from the whole dose curve; as a rule, active = well fitted activation curve with a large enough effect; inconclusive = small, poorly fitted or top-dose-only effect, or another doubt; inactive = no such curve, though single readings can be large or run the other way. The list shows a part of the results.

Test: Primary qHTS for Identification of Small Molecule Activators of Huntingtin-Antisense Promoter Activity; note: nearly all actives have a fitted effect of over 55% in size
Settings: HEK293 HTT-AS promoter firefly luciferase reporter, 24 h; series mostly up to 57.5 µM; activity change, positive = activation: at the top concentration
Method in brief: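 Firefly luciferase signal from promoter-reporter HEK293 cells was scaled between vehicle (0%) and zero RLU (-100%). Compounds were tested at final concentrations of up to 57.5 uM over 24 h at 37 degrees C. PTC124 at 50 uM final served as control inhibitor.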

Activity change, positive = activation, inactive:
COc1ccc(CNC(=O)c2cc(=O)[nH]c3ccc(S(=O)(=O)N4CCCC4)cc23)c(OC)c1 -10%
CC(=O)c1cccc(NC(=O)C(CC(C)C)NS(=O)(=O)c2ccc3c(c2)CCN3C(C)=O)c1 (stereo not drawn) 2.65%
CCOC(=O)CN(Cc1ccccc1)C(C(=O)NC1CCCCC1)c1ccc(OC)cc1 (stereo not drawn) -27.5%
COc1ccc(Cl)cc1NC(=O)c1ccc2c(c1)CCN2S(C)(=O)=O -13.9%
Cc1cc(NC(=O)CSc2nc(-c3ccccc3C)nc3c2c(=O)n(C)c(=O)n3C)no1 -3.95%
CCOc1cc(C(=O)Nc2cccc3cccnc23)cc(OCC)c1OCC -23%
Cc1c(Cl)cccc1NC(=O)C1CCCN(c2ncnc3onc(C)c23)C1 (stereo not drawn) -9.87%
CCOC(=O)N1CCC(NC(=O)c2cnn(-c3cccc(F)c3)c2-n2cccc2)CC1 -19%
NS(=O)(=O)c1ccc(CCNc2ncnc3c2cnn3-c2cccc(Cl)c2)cc1 -19.1%
O=C(NCc1ccccc1Cl)c1ccc2c(c1)N(Cc1ccccc1)C(=O)CS2 -29.2%
COc1ccc(CCC(=O)NCc2nc3cccnc3n2Cc2ccc(F)cc2)cc1 -22.1%
CN(CC(=O)Nc1ccccc1F)S(=O)(=O)c1ccc2c(c1)c(=O)n(C)c(=O)n2C -3.17%
CC1CCN(S(=O)(=O)c2ccc3c(c2)c(=O)c(C(=O)NC(C)c2ccccc2)cn3C)CC1 (stereo not drawn) -29%
Cc1ccc(-c2nnc(Nc3cccc(O)c3)c3ccccc23)cc1S(=O)(=O)NCC1CCCO1 (stereo not drawn) -43.4%
Cc1ccc(Cl)cc1N1CCN(C(=O)c2ccc3c(c2)CCN3S(=O)(=O)c2ccccc2)CC1 -21.9%
CC(=O)c1cc(-c2ccc(F)cc2)n(CC(=O)NC2CCC(C)CC2)c1C (stereo not drawn) -6.82%
CC(=O)c1cccc(NC(=O)Nc2nnc(N3CCCC3)s2)c1 5.52%
CCOC(=O)c1c(C)n(-c2ccccc2)c2ccc(OC(=O)c3cccc(C)c3)cc12 -18.1%
COc1cccc(CNC(=O)c2ccc3c(=O)n4nc(Nc5ccccc5)sc4nc3c2)c1 -18.8%
CCCOc1ccc(CNC(=O)c2ccc(C)c(-n3c(C)nc4cccnc43)c2)cc1 -7.19%
Cc1oc2ncn(C)c(=O)c2c1C(=O)NCCCN1CCCCC1C (stereo not drawn) -7.81%
O=C(Nc1cccc(C(F)(F)F)c1)N1CC2CCCN2c2ccccc21 (stereo not drawn) -25.7%
COc1ccc(-n2nc(C(=O)Nc3ccc(Cl)cn3)c3c4ccccc4n(C)c3c2=O)cc1 8.84%
Cc1cccc(NC(=O)Cn2nc3c4ccccc4n(Cc4ccccc4)cc-3c2=O)c1 -13%
COc1ccc2cc(-c3nnc(Nc4ccccc4)s3)c(=O)oc2c1 -3.45%
CCN(CC)C(=O)N1CCN(C)CC1 -9.19%
COc1cc(OC)c(N(C)C(=O)c2cn(C3CCCC3)c(=O)c3c2c2ccccc2n3C)cc1Cl -30.9%
O=C(O)CCC=CCC[C@@H]1[C@H](N2CCCCC2)[C@@H](O)C[C@@H]1OCc1ccc(-c2ccccc2)cc1 -8.52%
Cc1ccc(N2CCN(C(=O)c3cnn(-c4ccc(F)cc4F)c3C3CCN(C(=O)OC(C)(C)C)CC3)CC2)c(C)c1 -22.7%
CCN1CCN(C(c2ccc(C)cc2)c2c(O)cc(C)n(Cc3ccco3)c2=O)CC1 (stereo not drawn) 0.762%
CN(Cc1ccccc1)S(=O)(=O)c1ccc2[nH]c3c(c2c1)CCCCC3 16.1% [at 11.5 µM, percent change from vehicle, -100% = no light]
COc1ccc(-n2nc(C(=O)O)c(=O)n(C)c2=O)cc1 -2.33%
COc1ccc(-c2cc3nc(C)c(CCC(=O)N4CCN(c5ccc(F)cc5)CC4)c(C)n3n2)c(OC)c1 -39.2%
Cc1ccc(Nc2nc3ccccc3c3nnc(C)n23)c(C)c1 -12.4%
CCCCN(CCCC)CCNC(=O)CN1C(=O)CSc2ccc(S(=O)(=O)N3CCOCC3)cc21 -5.91%
COc1ccccc1OCC(=O)NC1CC(=O)N(c2ccc3c(c2)OCCO3)C1 (stereo not drawn) -10.4%
CC(=O)c1cccc(Nc2cc(C)nc3nc(Cc4ccccc4)nn23)c1 -8.43%
COc1ccc(NC(=O)c2c(C)oc3ccc(O)c(CN4CCN(Cc5ccccc5)CC4)c23)cc1Cl -34.2%
COc1ccc2c(c1)CCc1c(C(=O)Nc3ccc(OC)cc3OC)noc1-2 -12.4%
COc1ccccc1NC(=O)c1sc2nc3n(c(=O)c2c1C)N=C(c1cccc(Br)c1)CS3 1.68%
COc1ccc(OC)c(/C=C(\C#N)c2nc(-c3ccc(F)cc3)cs2)c1 -0.847%
COC(=O)c1ccc2c(c1)N(Cc1ccccc1)C(=O)c1ccccc1S2(=O)=O -26.3%
COc1ccc(Cn2c(C(=O)O)c(CNC3CCCCC3)c3ccc(C)cc32)cc1 -16%
COc1ccc(Cl)cc1NC(=O)CN1Cc2ccccc2C1=O -2.77%
Cc1nc(S(=O)(=O)N2CCN(c3ccccc3F)CC2)cn1C -5.65%
Nc1c(-c2nc(-c3ccc4c(c3)OCO4)cs2)c2ccccn2c1C(=O)c1ccc(Cl)cc1 3.34%
O=C(O)c1ccc(NC(=O)c2ccc(Br)c(S(=O)(=O)N3CCCC3)c2)cc1 -16.2%
CCOc1ccc(NC(=O)Cc2c[nH]c3ccccc23)cc1 23.3%
Cc1ccc(SCc2nc(-c3ccc(C(=O)NCC(C)c4ccccc4)cc3)oc2C)cc1 (stereo not drawn) -14.1%
CCCC12CN3CC(C)(CN(C1)C3c1ccc(OCc3ccccc3)cc1)C2=O (stereo not drawn) 4.14%
CCc1ccc(S(=O)(=O)c2nnn3c2nc(NCc2ccccc2)c2cc(Cl)ccc23)cc1 11.8%
O=C(Nc1ccc(Cl)cc1)c1cc(S(=O)(=O)NC2CCCCCC2)ccc1F -31.8%
CCN1C(=O)C(Cc2nc3ccccc3c(=O)n2C)c2cc(C)ccc21 (stereo not drawn) 14.4%
CCCNC(=O)C(Cc1ccccc1)NS(=O)(=O)c1ccc2c(c1)c(=O)n(C)c(=O)n2C (stereo not drawn) -3.39%
O=C(CN1CCN(Cc2ccccc2Cl)C1=O)NCCc1ccc(Cl)cc1 -11%
Cc1ccc(-c2csc3ncnc(Nc4ccc(C(=O)O)cc4)c23)cc1 -33.7%
COc1cc(NS(=O)(=O)c2ccc(-c3cc(C)no3)cc2)cc(OC)c1 -86.8%
COc1ccccc1-c1nc2cc(NC(=O)c3ccccc3Cl)ccc2o1 16.4%
CC1CCN(S(=O)(=O)c2ccc3nc(N4CCN(c5ccc(F)cc5)CC4)ccc3c2)CC1 -6.79%
COc1ccc(CCNc2ncnc3onc(C)c23)c(OC)c1 -84.1%
COCCCn1c(=N)c(C(=O)NC2CCCCC2)cc2c(=O)n3cc(C)ccc3nc21 3.48%
CC1CCCCN1CCCNC(=O)Cn1ncc2c3ccccc3n(C)c2c1=O (stereo not drawn) -7.12%
Cc1ccc(S(=O)(=O)c2cc3cc(C(=O)Nc4ccc(C)cc4C)ccc3oc2=O)cc1 -6.9%
CCc1ccccc1NC(=O)c1ccc(F)c(S(=O)(=O)N2CCN(c3cccc(Cl)c3)CC2)c1 -20.4%
COc1cccc(C(=O)N(Cc2ccc(C)o2)C2CCS(=O)(=O)C2)c1 (stereo not drawn) -11.6%
COc1ccc(-c2cc(C(F)(F)F)nc(NCc3ccc(F)cc3)n2)cc1 -24.5%
Cc1ccc(O)c(-c2n[nH]c3c2C(c2ccc(F)cc2)N(Cc2ccco2)C3=O)c1 (stereo not drawn) -35.4%
O=C(COCc1cc(-c2cccs2)on1)Nc1cc(C(F)(F)F)ccc1Cl 11.3%
CC(C)OCCCNC(=O)CCCN1C(=O)CCn2nc(-c3cccn3C)cc21 -14.7%
Cc1c(O)cccc1C(=O)N[C@@H](CSc1ccccc1)[C@H](O)CN1C[C@H]2CCCC[C@H]2C[C@H]1C(=O)NC(C)(C)C -44.2%
CCN(c1ccccc1)S(=O)(=O)c1ccc(NC(=O)c2nc(SC(C)C)ncc2Cl)cc1 -1.82%
Cc1cccc(CNC(=O)CN2C(=O)CSc3c2c(C)nn3-c2ccccc2)c1 -4.79%
CCOC(=O)c1cnc2ccc(OCC)cc2c1Nc1ccc(OCc2ccccc2Cl)cc1 -42%
COc1cc(C(CC(=O)Nc2ncccc2C)N2Cc3ccccc3C2=O)cc(OC)c1OC (stereo not drawn) -9.7%
CC(=O)c1cc(-c2ccc(F)cc2)n(CCC(=O)Nc2nc3ccc(C)cc3s2)c1C -31.6%
CC1(C)CC(=O)c2c(C(F)(F)F)nn(-c3ccc(C(N)=O)c(NC4CCC(O)CC4)c3)c2C1 (stereo not drawn) -62.2%
O=C(OCc1cc(=O)n2nc(C3CC3)sc2n1)c1ccc(NC(=O)c2ccccc2F)cc1 12.4%
Cc1ccc(C(=O)N2CCC(C)CC2)cc1NC(=O)c1nsc2ccccc12 -15.9%
CCOc1ccc(Br)cc1C1NC(=O)c2c(sc3c2CCN(C)C3)N1 (stereo not drawn) 13.9% [at 11.5 µM, percent change from vehicle, -100% = no light]
CN1CCN(C(CNC(=O)c2c(F)cccc2F)c2ccc3c(c2)OCO3)CC1 (stereo not drawn) -11.6%
Cc1cccc(N2CCN(C(=O)c3cc4ccc5cccnc5c4[nH]3)CC2C)c1 (stereo not drawn) -13.8%
O=c1c2ccccc2n(Cc2cccc(Cl)c2)c(=O)n1Cc1ccccc1 -32.1%
CCN(C(=O)Cn1ncc2c(=O)oc3ccccc3c21)c1ccccc1F -5.29%
COCCc1nn2c(=O)cc(COC(=O)c3ccc(Br)cc3)nc2s1 -3.54%
CCC(C)NC(=O)c1sc2nc3n(c(=O)c2c1C)CCC3 (stereo not drawn) 5.25%
COCCCNc1nc(NCc2ccc(C)cc2)c2cnn(C)c2n1 -18.8%
COc1cccc2c1cc1c(=O)n(CC(=O)N3CCC(C)CC3)nc(C)n12 -4.36%
COc1ccccc1-c1nc(SCC(=O)c2ccc(Cl)cc2)n[nH]1 -12.7%
CCC(=O)Nc1sc2c(c1C(=O)Nc1ccc(Br)cc1)CCCCC2 -8.18%
Cc1cc(C)c(NC(=O)CSc2nc3c([nH]c4ccccc43)c(=O)n2C)c(C)c1 -1.3%
Nc1ccn([C@@H]2O[C@H](CO)[C@@H](O)[C@H]2O)c(=O)n1 -29.2%
O=C(CN1CCN(Cc2ccc3c(c2)OCO3)CC1)N1c2ccccc2Sc2ccccc21 -2.63%
COc1ccc(CCNC(=O)c2ccc(Cn3c(=O)[nH]c4cc(OC)c(OC)cc4c3=O)cc2)cc1OC -7.21%
